Source: the antibiotic and cytotoxicity screens of Wong et al. (2023)
Some of the results follow.

Experiments:
[1] = test system: HSkMC (human skeletal muscle cells); test: cytotoxicity call (relative viability < 0.9); settings: 10 µM
[2] = test system: S. aureus RN4220; test: growth inhibition call (relative growth <= 0.2); settings: 50 µM

Structure (SMILES) | cytotoxicity call [1] | growth inhibition call [2]
CC(C)N1C[C@H](C)[C@@H](CN(C)Cc2ccc(Cl)c(Cl)c2)Oc2c(cccc2-c2nnc(-c3ccncc3)o2)C1=O | inactive | inactive
Cc1noc(C)c1S(=O)(=O)Nc1ccc2c(c1)CC(=O)N([C@@H](C)CO)C[C@H](C)[C@H](CN(C)Cc1ccc3c(c1)OCO3)O2 | inactive | inactive
COc1ccc(NC(=O)Nc2ccc3c(c2)C(=O)N([C@@H](C)CO)C[C@@H](C)[C@H](CN(C)C(=O)Nc2cccc4ccccc24)O3)cc1 | inactive | inactive
C[C@@H]1CN([C@@H](C)CO)C(=O)Cc2cc(NC(=O)Nc3ccc(C(F)(F)F)cc3)ccc2O[C@H]1CN(C)S(C)(=O)=O | inactive | inactive
COc1ccc(S(=O)(=O)N(C)C[C@H]2Oc3c(NC(=O)Nc4cccc5ccccc45)cccc3C(=O)N([C@H](C)CO)C[C@H]2C)cc1 | inactive | inactive
COCC(=O)N1C[C@@H](C)[C@H](OC)CN(C)C(=O)c2cc(NC(=O)c3ccc(F)cc3)ccc2OC[C@@H]1C | inactive | inactive
O=C(C[C@H]1C=C[C@H](NC(=O)C2CC2)[C@H](CO)O1)NCCCN1CCOCC1 | inactive | inactive
Cc1noc(C)c1NC(=O)Nc1ccc2c(c1)CC(=O)N([C@@H](C)CO)C[C@H](C)[C@@H](CN(C)S(C)(=O)=O)O2 | inactive | inactive
C[C@H](CO)N1C[C@H](C)[C@@H](CN(C)Cc2ccc(C(=O)O)cc2)Oc2ccc(NC(=O)c3ccncc3)cc2CC1=O | inactive | inactive
C[C@@H]1CN([C@@H](C)CO)C(=O)Cc2cc(NC(=O)C3CC3)ccc2O[C@H]1CN(C)Cc1ccc(Oc2ccccc2)cc1 | inactive | inactive
C[C@@H]1CCCCO[C@@H](CN(C)C(=O)Nc2ccc(F)cc2)[C@H](C)CN([C@H](C)CO)C(=O)c2cc(NC(=O)c3ccncc3)ccc2O1 | inactive | inactive
C[C@H]1CN([C@@H](C)CO)C(=O)Cc2cc(NC(=O)C3CCCCC3)ccc2O[C@H]1CN(C)C(=O)Nc1cccc2ccccc12 | inactive | inactive
Cc1noc(C)c1S(=O)(=O)Nc1ccc2c(c1)C(=O)N([C@H](C)CO)C[C@@H](C)[C@H](CN(C)C)OCCCC[C@@H](C)O2 | inactive | inactive
Cc1ccccc1S(=O)(=O)N(C)C[C@@H]1Oc2ccc(NC(=O)Nc3cccc(C(F)(F)F)c3)cc2CC(=O)N([C@@H](C)CO)C[C@@H]1C | active | inactive
CC(C)NCC(O)c1ccc(NS(C)(=O)=O)cc1.Cl (stereo not given) | inactive | inactive
C[C@@H]1CCCCO[C@H](CN(C)S(=O)(=O)c2ccccc2)[C@H](C)CN([C@@H](C)CO)C(=O)c2cc(NC(=O)NC3CCCCC3)ccc2O1 | inactive | inactive
COc1ccc(-c2oc3cc(O[C@@H]4O[C@@H](C)[C@H](O)[C@@H](O)[C@H]4O)cc(O)c3c(=O)c2O[C@@H]2O[C@H](CO)[C@@H](O)[C@H](O)[C@H]2O)cc1 | inactive | inactive
COc1ccc(NC(=O)Nc2ccc3c(c2)CC(=O)N([C@H](C)CO)C[C@@H](C)[C@@H](CN(C)Cc2ccc(Cl)c(Cl)c2)O3)cc1 | active | inactive
Cc1ccc(S(=O)(=O)N[C@@H]2CC[C@@H](CCNC(=O)CN3CCOCC3)O[C@@H]2CO)cc1 | inactive | inactive
C[C@H]1CCCCO[C@@H](CN(C)Cc2ccncc2)[C@@H](C)CN([C@@H](C)CO)C(=O)c2cc(NC(=O)Nc3ccc(F)cc3)ccc2O1 | inactive | inactive
C[C@@H]1CCCCO[C@@H](CN(C)S(=O)(=O)c2ccc(Cl)cc2)[C@@H](C)CN([C@@H](C)CO)C(=O)c2cc(NS(=O)(=O)c3cccs3)ccc2O1 | inactive | inactive
C[C@H](CO)N1C[C@H](C)[C@H](CN(C)Cc2ccc(C(F)(F)F)cc2)Oc2ccc(NC(=O)CCCCCC(=O)Nc3ccccc3N)cc2C1=O | inactive | inactive
C[C@H]1CCCCO[C@H](CN(C)S(=O)(=O)c2ccccc2)[C@@H](C)CN([C@@H](C)CO)C(=O)c2cc(NC(=O)C3CCCCC3)ccc2O1 | inactive | inactive
Cl.OC(CCN1CCCCC1)(c1ccccc1)C1CCCCC1 (stereo not given) | inactive | inactive
Cc1ccc(S(=O)(=O)Nc2ccc3c(c2)C(=O)N([C@H](C)CO)C[C@H](C)[C@H](CN(C)C(=O)Nc2ccc(C(F)(F)F)cc2)OCCCC[C@@H](C)O3)cc1 | inactive | inactive
